The whole screen tested about 310,000 compounds, of which about 14,000 (4.5%) showed an effect of 50% or more. Effects have a minus sign here. This is one part of the list.
Target: human ether-à-go-go-related gene (hERG) potassium channel (human, UniProt Q12809)
Test: primary screen, population patch clamp on CHO cells stably expressing hERG
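Further: peak tail current of the secondary pulse compared with the same well before compound.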

Sequence of human ether-à-go-go-related gene (hERG) potassium channel (Q12809 whole entry, looked up): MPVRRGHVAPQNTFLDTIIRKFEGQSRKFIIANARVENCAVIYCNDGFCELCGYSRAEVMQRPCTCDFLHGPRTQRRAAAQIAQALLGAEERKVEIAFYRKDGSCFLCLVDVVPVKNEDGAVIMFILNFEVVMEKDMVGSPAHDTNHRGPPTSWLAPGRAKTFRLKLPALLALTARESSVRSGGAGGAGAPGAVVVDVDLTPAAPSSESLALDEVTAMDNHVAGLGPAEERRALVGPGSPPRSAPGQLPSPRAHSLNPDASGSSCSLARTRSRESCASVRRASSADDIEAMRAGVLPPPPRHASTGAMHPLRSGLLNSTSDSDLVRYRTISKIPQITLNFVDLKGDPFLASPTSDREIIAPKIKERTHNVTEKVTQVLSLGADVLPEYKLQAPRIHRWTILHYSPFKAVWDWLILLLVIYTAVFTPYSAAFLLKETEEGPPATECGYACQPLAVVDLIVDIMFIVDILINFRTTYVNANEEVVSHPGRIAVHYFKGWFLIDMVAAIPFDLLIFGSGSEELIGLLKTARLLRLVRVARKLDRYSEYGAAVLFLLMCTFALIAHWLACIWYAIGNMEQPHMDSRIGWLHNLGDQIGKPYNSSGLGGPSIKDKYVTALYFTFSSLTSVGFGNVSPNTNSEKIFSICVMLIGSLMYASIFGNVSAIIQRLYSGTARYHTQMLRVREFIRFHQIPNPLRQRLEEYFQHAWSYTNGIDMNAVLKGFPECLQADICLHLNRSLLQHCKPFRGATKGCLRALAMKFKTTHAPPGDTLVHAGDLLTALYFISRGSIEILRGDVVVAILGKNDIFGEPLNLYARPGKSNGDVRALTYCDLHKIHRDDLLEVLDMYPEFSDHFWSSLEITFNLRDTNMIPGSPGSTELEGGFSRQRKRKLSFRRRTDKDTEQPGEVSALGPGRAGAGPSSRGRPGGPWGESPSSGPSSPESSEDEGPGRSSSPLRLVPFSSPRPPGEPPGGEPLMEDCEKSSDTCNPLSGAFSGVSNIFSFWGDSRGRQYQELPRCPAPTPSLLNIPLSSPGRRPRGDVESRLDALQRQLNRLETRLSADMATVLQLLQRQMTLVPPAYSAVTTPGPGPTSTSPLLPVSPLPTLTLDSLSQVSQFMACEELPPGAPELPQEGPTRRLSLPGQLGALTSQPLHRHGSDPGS

| Structure (SMILES) | hERG current change (%, negative = inhibition) at 10uM |
| --- | --- |
| O=C(C1CCN(S(=O)(=O)c2cnc[nH]2)CC1)N1CCN(c2ccc([N+](=O)[O-])cc2)CC1 | -1.78% |
| CCc1c(C)nc(N)nc1N1N=C1SCC#N | -1.77% |
| Cn1c(CSc2ncn[nH]2)nc2ccccc21 | 4.54% |
| CCOC(=O)C1CCCN(C(=O)c2cc3cc(Br)ccc3oc2=O)C1 (stereo not shown) | -2.16% |
| C=CCNc1nc2ccccc2nc1NS(=O)(=O)c1ccc(OC)cc1 | 4.7% |
| Cc1cnc(C(=O)OCC(=O)N2c3ccccc3CC2C)cn1 (stereo not shown) | 2.42% |
| Cc1noc(C)c1C(=O)OCC(=O)N(C)C1(C#N)CCCCC1 | -9.75% |
| COc1cccc(CNC(=O)C2CCCN(S(=O)(=O)c3c(C)[nH]c(=O)[nH]c3=O)C2)c1 (stereo not shown) | 3.7% |
| COC(=O)CNC(=O)C(Cc1c[nH]c2ccccc12)NC(=O)Oc1ccccc1 (stereo not shown) | 4.19% |
| Cn1c(CNC(=O)c2ccc3c(c2)OCO3)nnc1SCC(=O)Nc1ccccc1Cl | -9.67% |
| CC(C)(C)[C@@H]1C=C(C(=O)NC2CC2)O[C@H](OCc2ccc(CO)cc2)C1 | 1.67% |
| Cc1ccc(C(=O)COC(=O)COc2ccccc2[N+](=O)[O-])s1 | 11.3% |
| O=C1NC(c2cccc([N+](=O)[O-])c2)=CCN1c1ccccc1O | 4.45% |
| CN1C2C=C3C(C#N)=C(N)C(C#N)(C#N)[C@@H](c4ccsc4)[C@@H]3C1CC2 (stereo partly shown) | -8.52% |
| COc1ccc(C2c3c(oc4ccc(Cl)cc4c3=O)C(=O)N2CCN2CCOCC2)cc1 (stereo not shown) | -81.2% |
| Cc1cc(N2CCN(Cc3ccccc3)CC2)n2nc(C)c(-c3ccccc3)c2n1 | -6.01% |
| O=C(CSc1nccn1Cc1ccccc1)NC1CCCC1 | 12.8% |
| CCC(NC(=O)NC1CCCCC1)c1ccccc1 (stereo not shown) | -1.62% |
| Cc1cc(C)n(CC(=O)N/N=C/c2ccccn2)n1 | 16.4% |
| CC(=O)c1ccc(N=Nc2c(C)[nH][nH]c2=O)cc1 | 11.5% |
| CCOc1ncccc1C(=O)OCC(=O)N(CC(C)C)c1c(N)n(Cc2ccccc2)c(=O)[nH]c1=O | 24.2% |
| Cc1ccc2sc(NC(=O)C3CC3)nc2c1C | 3.92% |

| Structure (SMILES) | hERG current change (%, negative = inhibition) at 10uM |
| --- | --- |
| O=C(O)C1CCCCC1C(=O)NCCc1ccc(Cl)cc1 (stereo not shown) | 7.73% |
| O=C(NCc1ccncc1)Nc1ccccc1 | 6.89% |
| CN(C)c1ccc(S(=O)(=O)N(C)C)cc1NC(=O)Cc1cccc2ccccc12 | 0.545% |
| COc1ccc(NC(=O)CSc2nnc(CN3CCOCC3)n2C)cc1Cl | -6.51% |
| COCCCNC(=S)N(CCCN(C)C)Cc1cc2cc3c(cc2[nH]c1=O)OCCO3 | -5.1% |
| O=C(N/N=C/c1cccnc1)c1ccc(NC(=O)c2ccccc2Cl)cc1 | -5.91% |
| Cc1ccc(SCCNS(=O)(=O)c2ccc3c(c2)OCCO3)cc1 | 2.17% |
| N#C/C(=C\c1ccccc1[N+](=O)[O-])C(=O)NC1CCCCC1 | -13.9% |
| Cn1c(=O)c2c(ncn2Cc2ccc(Cl)cc2)n(C)c1=O | -7.58% |
| O=C(NCCCO)c1nc2ccccc2s1 | -12.8% |
| COc1ccc2cnn(-c3ccccc3)c(=O)c2c1OC | 11.4% |
| COc1ccc(CC(NC(C)=O)C(=O)NC2CCN(C(=O)Nc3ccccc3Cl)CC2)cc1OC (stereo not shown) | 12.7% |
| COCc1cc(=O)n2c(-c3ccc(C)cc3)n[nH]c2n1 | 11.4% |
| Cc1c(C(=O)OCC(=O)c2c(N)n(CC(C)C)c(=O)n(C)c2=O)oc2ccccc12 | -18.5% |
| O=C(CN1CCCCC1)Nc1ccccc1Oc1ccccc1 | -31.7% |
| Cc1cc(N2CCN(C)CC2)nc2ccc(NC(=O)CCC(=O)NCCC3=CCCCC3)cc12 | -11.9% |
| CC(=O)c1cccc(NC(=O)N2CCCCCC2)c1 | 1.5% |
| COC(=O)CNC(=O)/C=C/c1cc(Br)ccc1OC | 10.4% |
| CC(C)CN1C(=O)C(=O)N(CC(=O)Nc2cc(Cl)ccc2Oc2ccccc2)C1=O | -9.89% |
| CN(CCO)c1cc(N2CCN(C(=O)c3ccco3)CC2)c2nonc2c1[N+](=O)[O-] | -39% |
| COc1ccc(CNC(=O)c2cnn3c(C(F)F)cc(C)nc23)cc1OC | 12.2% |
| Cc1cc(C)nc(-n2ncc3c2CC(c2ccc(C(C)C)cc2)CC3=O)n1 (stereo not shown) | -6.16% |

| Structure (SMILES) | hERG current change (%, negative = inhibition) at 10uM |
| --- | --- |
| COc1ccc(N(Cc2cc3ccccc3[nH]c2=O)C(=O)C2CCCO2)cc1 (stereo not shown) | 1.4% |
| Cc1csc(SCC(=O)c2c(N)n(CC(C)C)c(=O)n(C)c2=O)n1 | -9.84% |
| COc1ccc(Cl)cc1NC(=O)COC(=O)/C=C/c1c(C)nn(C2CCS(=O)(=O)C2)c1Cl (stereo not shown) | -0.68% |
| CC1Cc2cc(/C(O)=C3/C(=O)C(=O)N(CCN4CCOCC4)C3c3ccc(N(C)C)cc3)ccc2O1 (stereo not shown) | 23.7% |
| COc1ccc(NC(=S)NCCCN2CCCC2)cc1Cl | -3.97% |
| Cc1cc(S(=O)(=O)NC2CCCCC2)c(C)s1 | -7.51% |
| CCc1noc(C)c1C(=O)Nc1nc(-c2ccc(OC)cc2OC)cs1 | 10.9% |
| Cc1cccc(C(=O)N2CCCCCC2)c1[N+](=O)[O-] | 11% |
| CCOc1ccc(Nc2nc(N3CCCC3)nc(N3CCN(c4ccc(OC)cc4)CC3)n2)cc1 | 13.6% |
| Cc1ccc(S(=O)(=O)N(C)Cc2ccccc2)cc1C(=O)N1CCCCC1 | -40.8% |
| CCOCCCNC(=O)C1CCN(Cc2ccc(OCc3ccccc3)c(OC)c2)CC1.O=C(O)C(=O)O | -43.3% |
| CCCOC(=O)c1ccc(Oc2coc3c(CN(CC)CC)c(O)ccc3c2=O)cc1 | -22.7% |
| CC(C)(C)NC(=O)COc1ccc(CNCCc2ccccc2)cc1.Cl | 6.24% |
| Cc1c(Cl)cnc(NC(=O)COC(=O)c2cc3c(s2)CCC(C)C3)c1Cl (stereo not shown) | 16.4% |
| O=C1NC(=O)/C(=C/c2ccco2)N1 | 10.5% |
| CN1CCN(CCCNC(=O)c2ccc(/C=C3\Oc4ccccc4N(Cc4ccccc4F)C3=O)cc2)CC1 | 6.08% |
| Cc1cc(NC(=O)CSc2nc(C3CC3)nc3sc4c(c23)CCC(C)C4)no1 (stereo not shown) | 10% |
| COc1ccc(C2=NO[C@@H]3[C@@H]4C[C@@H]([C@H]5C(=O)N(C)C(=O)[C@@H]45)[C@H]23)cc1 | -22.4% |
| O=c1oc2ccccc2c(Nc2ccc3ncccc3c2)c1[N+](=O)[O-] | -12.8% |
| COc1ccc(-c2noc(CN3CCN(c4ccccc4F)CC3)n2)cc1OC | -10.4% |
| C=CCN(CC=C)C(=O)CN1C(=O)c2ccccc2C1=O | 9.73% |
| COc1ccc(N2CCN(C(=O)COc3ccc4c(C)c(C)c(=O)oc4c3C)CC2)cc1 | 7.27% |

| Structure (SMILES) | hERG current change (%, negative = inhibition) at 10uM |
| --- | --- |
| COC(=O)c1ccc(OCc2nn[nH]n2)cc1 | 14.4% |
| Cc1ccc(S(=O)(=O)N2CCC(C(=O)N3CCC4(CC3)OCCO4)CC2)cc1 | -12% |
| COc1ccc(CCN(Cc2ccccn2)C(=S)Nc2ccccc2F)cc1OC | -24.6% |
| Fc1cccc2sc(Nc3nc4c(F)cccc4s3)nc12 | 5.38% |
| NS(=O)(=O)c1ccc(NC(=O)COC(=O)CSCc2ccc(F)cc2)cc1 | 13.7% |
| O=C(OCc1ccccc1F)c1ccc2c(c1)OCCO2 | 7.26% |
| CN(C)C=Nc1ncc2c([nH]c3ccccc32)c1C#N | -4.57% |
| Cc1cc(C)c(C#N)c(SCc2ccc(C#N)cc2)n1 | 3.03% |
| CN(CC(=O)NCCc1ccc(F)cc1)Cc1cccs1 | -14.7% |
| O=C(O)c1ccc(N2C(=O)CC(N3CCC(c4nc5ccccc5[nH]4)CC3)C2=O)cc1 (stereo not shown) | 4.95% |
| COc1ccc(CN2CCN(Cc3cccc4nonc34)CC2CCO)c(C)c1C (stereo not shown) | -68.3% |
| O=[N+]([O-])c1cccc(-c2nnc3c4ccccc4c4ccccc4n23)c1 | 0.504% |
| CC(=O)Nc1ccc(SCCN2CC[C@@H](O)CCC2=O)cc1 | 4.8% |
| COc1ccccc1NC(=O)C(C)OC(=O)c1cccc(-n2cnnn2)c1 (stereo not shown) | -35.2% |
| Cc1onc(-c2ccccc2Cl)c1C(=O)Nc1ccc(-n2nncc2-c2ccco2)cc1 | -5.17% |
| COCCCNCCOCCOc1ccc(Cl)cc1Br.O=C(O)C(=O)O | -51.9% |
| CCOc1cc(/C=N\NC(=O)c2ccc(NC(=O)C(C)(C)C)cc2)ccc1OC(=O)c1cccc(C)c1 | 10% |
| O=C(CSc1nnc(-c2ccccc2Br)o1)N1CCN(C(=O)c2ccco2)CC1 | -40.9% |
| O=C(CSc1ncnc2c1nnn2Cc1ccccc1)NC1CCCCC1 | 2.09% |
| COCCn1nnnc1C(C(C)C)N1CCOCC1.Cl (stereo not shown) | 0.112% |
| Cc1ccccc1NC(=O)NC(N)=O | 1.83% |
| CCOc1cc2c(Cl)ncnc2c(OCC)c1OCC | 23.3% |
